Over roughly 81,000 sequences, “one-hybrid fitness for binding parS DNA” has its median near -0.17; the highest 2% begin near 0.51. The list shows a part of the results.
B1: Caulobacter ParB omega fusion; a variant is named by its letters at X, in order, B8GW30 (parent)
chain: MESVVVGEPGMSEGRRGLGRGLSALLGEVDAAPAQAPGEQLGGSREAPIEILQRNPDQPRRTFREEDLEDLSNSIREKGVLQPILVRPSPDTAGEYQIVAGERAWRAAQRAGLKTVPIMVRELDDLAVLEIGIIENVQRADLNVLEEALSYKVLMEKFERTQENIAQTIGKSXSHVANXMRLLXLPDEVQSYLVSGELTAXHARAIAAAADPVALAKQIIEGGLSVRETEALARKAPNLSAGKSKGGRPPRVKDTDTQALESDLSSVLGLDVSIDHRGSTGTLTITYATLEQLDDLCNRLTRGI

Variants of: B1
Experiment: one-hybrid fitness for binding parS DNA (scaled: cognate 1, non-cognate 0); higher = stronger binding
Conditions: with parS DNA site
How it was run: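 Fitness here means the log change in variant-to-wild-type read ratio between plasmids sequenced before and after selection. That scale was set so cognate equals 1 and non-cognate equals 0. The selection was a bacterial one-hybrid screen of Caulobacter ParB libraries, four specificity codons randomised, in E. coli USO carrying a HIS3 reporter with the site 19 bp from the promoter, grown 48 hours at 37°C on M9-minus-histidine with 0.1 mM IPTG and 5 mM 3-AT.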

Variant | one-hybrid fitness for binding parS DNA
TPAV | ≤ 0.2
FVGM | ≤ 0.2
AIPC | ≤ 0.2
PTLL | ≤ 0.2
RPFC | ≤ 0.2
HAAD | ≤ 0.2
TTEC | ≤ 0.2
HCES | ≤ 0.2
PYMF | ≤ 0.2
IING | ≤ 0.2
GHNW | ≤ 0.2
GVSC | ≤ 0.2
ASHT | ≤ 0.2
QCLQ | ≤ 0.2
LLSY | ≤ 0.2
SVMF | ≤ 0.2
PDDS | ≤ 0.2
RYGH | ≤ 0.2
QKAV | ≤ 0.2
TPNH | ≤ 0.2
NRAC | ≤ 0.2
RAQL | ≤ 0.2
GGCT | ≤ 0.2
YILA | ≤ 0.2
LRTQ | ≤ 0.2

Variant | one-hybrid fitness for binding parS DNA
PGVV | ≤ 0.2
RGRW | ≤ 0.2
MAVK | ≤ 0.2
TFST | ≤ 0.2
GYWC | ≤ 0.2
AAIN | ≤ 0.2
TSVP | ≤ 0.2
CNIG | ≤ 0.2
PLWL | ≤ 0.2
YPTC | ≤ 0.2
QPTS | ≤ 0.2
NDLY | ≤ 0.2
GCHS | ≤ 0.2
RYGP | ≤ 0.2
LRLC | ≤ 0.2
KVVA | ≤ 0.2
RGFM | ≤ 0.2
QIGM | ≤ 0.2
MSRY | ≤ 0.2
QVHA | ≤ 0.2
NTWT | ≤ 0.2
CDPR | ≤ 0.2
GKSC | 0.22
DYSF | ≤ 0.2
ENNT | ≤ 0.2

Variant | one-hybrid fitness for binding parS DNA
MSIV | ≤ 0.2
TCLE | ≤ 0.2
HIHS | ≤ 0.2
GTTK | ≤ 0.2
RDQG | ≤ 0.2
ARDC | ≤ 0.2
TYCS | ≤ 0.2
QPTA | ≤ 0.2
GCES | ≤ 0.2
DIQL | ≤ 0.2
RVGF | 0.254
SWLQ | ≤ 0.2
KFKV | ≤ 0.2
MWKG | ≤ 0.2
SWRN | ≤ 0.2
STKF | ≤ 0.2
RIDF | 0.257
LNCY | ≤ 0.2
IFYY | 0.223
VKPD | ≤ 0.2
PSCQ | ≤ 0.2
SMVN | ≤ 0.2
RANK | ≤ 0.2
KRTN | ≤ 0.2
SLYW | ≤ 0.2

Variant | one-hybrid fitness for binding parS DNA
PNSF | ≤ 0.2
PIRW | ≤ 0.2
FPKG | ≤ 0.2
LEPH | ≤ 0.2
NLWS | ≤ 0.2
DHRV | ≤ 0.2
PSLC | ≤ 0.2
FNLM | ≤ 0.2
TFDV | ≤ 0.2
YFHG | ≤ 0.2
CLGS | ≤ 0.2
PMGI | ≤ 0.2
SGPP | ≤ 0.2
DMVT | ≤ 0.2
AALI | ≤ 0.2
FSVR | ≤ 0.2
FWIG | ≤ 0.2
HPTE | ≤ 0.2
KFQS | ≤ 0.2
KTRN | ≤ 0.2
PMRI | ≤ 0.2
RMNA | 0.606
